Data on 84 molecules can be found in ChEMBL document CHEMBL4888484, “Replenishing the malaria drug discovery pipeline: Screening and hit evaluation of the MMV Hit Generation Library 1 (HGL1) against asexual blood stage Plasmodium falciparum ,using a nano luciferase reporter read-out” (2022).

The campaign covered roughly 150,000 compounds. About 540 (0.36%) showed an effect of 50% or more. This is one part of the list.

The test concerns Plasmodium falciparum. Kind of test: Primary screen in NF54 nanoGlo assay, in single point, at 2uM, 72h; a lower Z score goes with more inhibition. The format is functional, Erythrocyte. The settings on record: timepoint 72 hour.
The term % Inhibition denotes the drop in the measured response relative to a control, in per cent. In the case of `COc1ccc2[nH]c(-c3nnc(-c4ccccc4F)s3)cc2c1`, the “% Inhibition” value is -2% and the Z score stood at 0.27.
The matching figures for `CCCc1cc(NCCc2n[nH]c(=O)[nH]2)nc(C)n1`: -7% and 1.06.
The matching figures for `Cc1cccc(OCc2nc(C(=O)N3CCOCC3)cs2)c1C`: 16% and -2.5.
Regarding `COc1cccc2c(C(=O)N3CC(O)(C(F)F)C3)n[nH]c12`, the “% Inhibition” value was -24% and the Z score came out at 3.16.
For `Cc1nc(-c2ccccc2)nc2c1[C@@H]1[C@H](C2)C1(C)C` the same measures were -2% and 0.31.
Consider `COc1ccc(-n2nc(C)c3sc(N4CCN(C(=O)c5ccc(C)c(F)c5)CC4)nc32)cc1`, for which the “% Inhibition” value was -7% and the Z score is 0.79.
With `COC[C@H]1CCCCN(C(=O)c2ccc(C3CCOCC3)cc2)C1`, the “% Inhibition” value was found to be 13% and the Z score was -2.56.
The matching figures for `Oc1ccc2c(c1)CC[C@H](NCc1ccns1)C2`: -4% and 0.37.
For `CC(C)c1cc(CN2CCC(n3nccc3NC(=O)c3cccnc3)CC2)n[nH]1` the same measures were 5% and -0.66.
Regarding `C[C@]1(c2nc(-c3cccc4ccccc34)no2)CCNC(=O)C1`, the “% Inhibition” value was -7% and the Z score was 1.33.
For `CCN(Cc1cccc2[nH]ccc12)[C@H]1CCOC(C)(C)C1` the same measures were -7% and 1.38.
For `CCN(C)C(=O)NCC(C)(C)c1ccccc1Br` the same measures were 1% and -0.24.
The matching figures for `Cn1cc(C(=O)N2CC[C@H]3[C@H](CCC(=O)N3CCC3=CCCCC3)C2)cn1`: -15% and 1.89.
As to `O=C1N(C2CCCCC2)C(c2ccccc2)=N[C@@]1(Nc1ncccn1)C(F)(F)F`, the “% Inhibition” value is reported as -1% and the Z score was found to be 0.2.
Regarding `CCn1cc(OCc2nc([C@H](C)OC)no2)cn1`, the “% Inhibition” value is -7% and the Z score is reported as 1.
With `Cc1onc(-c2ccccc2Cl)c1C(=O)Nc1ccc2c(c1)N(C)C(=O)C(C)(C)CO2`, the “% Inhibition” value was 0% and the Z score is on record as 0.03.
Turning to `O=C(NCc1ccccc1F)C1Cc2cc(C(F)(F)F)ccc2N2CCN(c3ccccc3)CC12` (stereo not drawn), the “% Inhibition” value is listed as -7% and the Z score is 0.9.
For `c1ccc(-c2nc(-c3ccc(-n4ccnc4)nc3)no2)cc1` the same measures were -3% and 0.3.
For `CC(=O)N[C@@H]1CC[C@H]2CCOc3ccccc3C(=O)N3CCN(CCC(C)(C)C)C[C@H]3C(=O)NC[C@H]1O2` the same measures were 11% and -1.26.
For `O=C(NCc1cccnc1-c1cccnc1)c1ccc2c(c1)OCO2` the same measures were 3% and -0.46.
For `O=C(NCCC1=CCCCC1)c1cc2n(n1)CCCN(Cc1ccc(Cl)cc1)C2=O`, the “% Inhibition” value is reported as -6% and the Z score came out at 1.15.
Turning to `C[C@@H]1CN(CCC2CCCCO2)C[C@H](C)N1CCC1CCCCO1` (stereo partly drawn), the “% Inhibition” value was -17% and the Z score was found to be 1.78.
The matching figures for `OC1c2ccccc2CC1NCc1ccc(Cl)cc1-n1cncn1` (stereo not drawn): -8% and 1.3.
For `Cc1nc2ncnn2c(N2CCCC2)c1C` the same measures were -12% and 1.99.
For `O=C(O)c1cc(N2CCC[C@H](c3nccn3Cc3ccccc3)C2)ccn1` the same measures were 2% and -0.27.
`CCc1cccc(OC[C@@H](O)Cn2c(NC3CCCCC3)nc3c2c(=O)n(C)c(=O)n3C)c1`: the “% Inhibition” value is recorded as 3% and the Z score was -0.42.
Turning to `O=S(=O)(CC[C@H]1CCOC1)NCc1nnc2n1CCCCC2`, the “% Inhibition” value was -16% and the Z score amounted to 2.61.
The matching figures for `O=C(c1nc2ccccc2s1)N1CCC(S(=O)(=O)c2ccc(F)cc2)CC1`: -17% and 2.24.
The matching figures for `O=C(NCc1oc2ccc(Cl)cc2c1-c1ccccc1)[C@H]1CCOC1`: 11% and -1.22.
With `CCCN1CCCC[C@H]1C(=O)Nc1ccn(CCCn2ccnc2)n1`, the “% Inhibition” value is recorded as -2% and the Z score came to 0.31.
The matching figures for `Cc1nccn1CCn1ccnc1-c1ccccn1`: -4% and 0.49.
The matching figures for `COCCn1cncc1CN(Cc1ccc(C)s1)C1CCCC1`: -2% and 0.19.
The matching figures for `Cc1cnc(CNC(=O)c2cc3nccc(C(F)(F)F)n3n2)c(C)c1`: 5% and -0.74.
In the case of `COc1cc2c(cc1OC)CN(C(=O)c1cc3c(nc1OC)CCC3)CC2`, the “% Inhibition” value was -18% and the Z score is reported as 3.35.
The matching figures for `Cc1ncnc(-c2ccc([C@H](C)N3CCCCC3)cc2)c1C`: 3% and -0.53.
The matching figures for `Cc1ccc2c(=O)c(C(=O)Nc3ccc(Br)cc3)c[nH]c2n1`: -11% and 1.51.
The matching figures for `Cc1[nH][nH]c(=O)c1CC(=O)NC(c1ccc(F)cc1F)[C@H]1C[C@H](O)C1` (stereo partly drawn): 12% and -1.61.
Take `OC(COc1cccc2ccccc12)CN1CCCN2CCCC2C1` (stereo not drawn): the “% Inhibition” value was -9% and the Z score is on record as 0.96.
The matching figures for `CC1(c2ccc(Cl)s2)NC(=O)N(CC2CC3CCC2O3)C1=O` (stereo not drawn): -14% and 2.11.
For `O=S(=O)(CC1CCCC1(F)F)NCCN1CC2CCC(C1)O2` (stereo not drawn) the same measures were 3% and -0.5.
Take `Cc1ccn(CC(=O)N2CCCC[C@@]2(C)c2noc(-c3ccc(F)cc3)n2)n1`: the “% Inhibition” value turned out to be 32% and the Z score was -3.66.
In the case of `Cn1ccc2ccc(CN3C[C@H]4CN(C5CCCC5)C[C@@]4(C(=O)O)C3)cc21`, the “% Inhibition” value was -4% and the Z score turned out to be 0.6.
As for `C[C@@]1(O)CCN(Cc2ccccc2Cl)[C@@H](c2ccccc2)[C@@H]1NC(=O)c1ccc(F)cc1`, the “% Inhibition” value was -15% and the Z score is listed as 2.27.
For `Cc1cc(C)nc(Cn2cnc3cn(C)nc3c2=O)n1` the same measures were 0% and -0.03.
For `O=C(Nc1ccccc1Br)C1CCN([C@H](C(=O)O)C2CC2)CC1`, the “% Inhibition” value was -8% and the Z score is 1.01.
For the molecule `CC(C)(C)CS(=O)(=O)NC(=O)CCc1cncc(F)c1`, the “% Inhibition” value is reported as -4% and the Z score was determined as 0.43.
Regarding `CC(C)c1csc(CN2CCC[C@H](CCC(=O)N3CCOCC3)C2)n1`, the “% Inhibition” value was -12% and the Z score was determined as 2.32.
As for `O=C1CC(c2ccccc2)N(C(=O)C2Cc3ccccc3O2)CCN1` (stereo not drawn), the “% Inhibition” value is listed as -15% and the Z score came to 1.72.
The matching figures for `Cc1cccc2nc(-c3ccco3)c(Nc3ccc4c(c3)OCO4)n12`: -9% and 1.02.
Consider `CC(C)(C)n1ncnc1[C@@H]1[C@H]2[C@@H]3CC[C@@H](C3)[C@@H]12`, for which the “% Inhibition” value was -7% and the Z score is recorded as 1.02.
For `CCc1ccc(S(=O)(=O)N2CCCN(C(C)C)CC2)s1` the same measures were -12% and 1.2.
Take `CC(C)c1ocnc1C(=O)N1CC2CC=CCC2C1` (stereo not drawn): the “% Inhibition” value is reported as 3% and the Z score is given as -0.36.
Turning to `O=C(CN1CCC(OC[C@H]2CCCO2)CC1)Nc1nccs1`, the “% Inhibition” value is on record as -1% and the Z score was determined as 0.21.
Consider `O=C1CCC(=O)N1C1CC2CCC(C1)N2S(=O)(=O)C1CC1` (stereo not drawn), for which the “% Inhibition” value is on record as -8% and the Z score is on record as 0.93.
The matching figures for `C1CCC(c2nc3c(c(NCc4noc([C@@H]5CCCO5)n4)n2)CNC3)C1`: 8% and -1.11.
On to `COc1ccc(-c2noc([C@@H]3CCCN3C(=O)C3CCCC3)n2)cc1`, for which the “% Inhibition” value is given as -7% and the Z score stood at 1.09.
Take `O=C(c1cnn2cccc(Br)c12)N1CC[C@@](F)(CO)C1`: the “% Inhibition” value came out at 7% and the Z score is given as -1.25.
Consider `CN(C)c1ccc(NC(=O)N2CCOCC2)cn1`, for which the “% Inhibition” value stood at 3% and the Z score is -0.44.
In the case of `O=C(c1cccc(-c2noc(-c3ccco3)n2)c1)N1CCCC1`, the “% Inhibition” value is recorded as -18% and the Z score is listed as 2.45.
For `Cc1cc(C)n2cc(COC(=O)c3ccc(O)cc3)nc2n1` the same measures were -4% and 0.65.
For `CC[C@H]1CCCCCN1C(=O)Cc1ccc(-n2cnnc2)cc1` the same measures were 2% and -0.52.
For the molecule `Cc1nc(C)c(CN[C@@H](CCO)C2CCCCC2)s1`, the “% Inhibition” value was -9% and the Z score came to 1.22.
For `O=C(Cn1cccn1)N1CCCC[C@H]1c1nc(-c2ccccc2)c[nH]1` the same measures were -4% and 0.72.
As to `CC(CS(=O)(=O)c1ccccc1)NC(C)c1cccc(-n2cncn2)c1` (stereo not drawn), the “% Inhibition” value is -1% and the Z score came to 0.15.
On to `COc1ccc([C@@H](NCc2noc(C)n2)C2CCOCC2)cc1`, for which the “% Inhibition” value is 2% and the Z score was -0.32.
The matching figures for `O=C(NCCCN1CCCC1=O)Nc1nc(-c2ccccc2)cs1`: -5% and 0.58.
With `CN1CCC(CNc2ncccc2F)(N2CCCCC2)CC1`, the “% Inhibition” value was -2% and the Z score is 0.24.
For `COC(=O)C1(C)CCN(CC(O)C(F)(F)F)C1` (stereo not drawn) the same measures were -5% and 0.67.
For the molecule `C[C@@H](C1CCC1)N(C)C(=O)c1cn(C2CCOCC2)nn1`, the “% Inhibition” value was -10% and the Z score was found to be 1.37.
The matching figures for `CCOc1cc(C(=O)N(C)C)ccc1NC1CC(C)N(C2CC2)C1` (stereo not drawn): -11% and 1.2.
As to `CCC1(CC)NC(=O)N(CC(=O)N2CCCC2)C1=O`, the “% Inhibition” value was found to be 4% and the Z score is -0.77.
For `CCC(C)c1nc(C(C)NC(=O)CCc2ccc(Cl)s2)n[nH]1` (stereo not drawn) the same measures were 7% and -1.18.
With `O=C(Cn1nc(-c2ccccc2)ccc1=O)N1CCN(c2ccc(F)cc2)CC1`, the “% Inhibition” value is reported as -5% and the Z score came out at 0.7.
For `Clc1cccc(CN2CCC(n3cncn3)CC2)c1Cl` the same measures were -9% and 1.23.
For `Cc1noc(C)c1C(=O)N1CCC[C@H]1c1nn(C)c(=O)n1Cc1ccccc1` the same measures were -7% and 0.98.
Regarding `C#CCCC1(CCC(=O)N2CCC(CN3CCc4ccccc43)CC2)N=N1`, the “% Inhibition” value is given as 1% and the Z score was -0.2.
`Cn1ccc(NC(=O)CCS(=O)(=O)c2ccc3c(c2)CCC3)n1`: the “% Inhibition” value is on record as -9% and the Z score is given as 0.95.
As to `Cc1sc(C)c(CNCC(C)C)c1CNCC(C)C`, the “% Inhibition” value was 10% and the Z score is -1.04.
The matching figures for `O=C(NC1CCCC1)C(F)(F)C(F)(F)C(=O)NC1CCCC1`: 0% and 0.05.
The matching figures for `C[C@H](CCC(=O)Nc1cccc2[nH]ccc12)[C@H]1CC[C@H]2[C@@H]3CC[C@@H]4C[C@H](O)CC[C@]4(C)[C@H]3C[C@H](O)[C@]12C`: -10% and 1.2.
The matching figures for `CC(C)(C)c1cn2nc(N3C4CCC3CC(O)C4)sc2n1` (stereo not drawn): -5% and 0.62.
In the case of `Cc1nnc(N2CCN(C)C(=O)C2)c2ccccc12`, the “% Inhibition” value was -5% and the Z score was 0.65.
The matching figures for `O[C@@H](CNc1ncnc2sccc12)c1ccc(Cl)c(F)c1`: 28% and -3.21.
For `O=C(NCCCN1CCCCC1)[C@@H]1CCN(c2ccc(Cl)cc2)C1=O` the same measures were -10% and 1.02.
